Laboratory results as given in the supplement of paper PMC3334620.
In all, about 33,000 sequences were measured (“E-score (-0.5 to 0.5)”: median about -0.011, highest 2% from about 0.28 on). Some of the results follow.

Biological target: T1, Gcr1 (UniProt P07261)
T1 sequence: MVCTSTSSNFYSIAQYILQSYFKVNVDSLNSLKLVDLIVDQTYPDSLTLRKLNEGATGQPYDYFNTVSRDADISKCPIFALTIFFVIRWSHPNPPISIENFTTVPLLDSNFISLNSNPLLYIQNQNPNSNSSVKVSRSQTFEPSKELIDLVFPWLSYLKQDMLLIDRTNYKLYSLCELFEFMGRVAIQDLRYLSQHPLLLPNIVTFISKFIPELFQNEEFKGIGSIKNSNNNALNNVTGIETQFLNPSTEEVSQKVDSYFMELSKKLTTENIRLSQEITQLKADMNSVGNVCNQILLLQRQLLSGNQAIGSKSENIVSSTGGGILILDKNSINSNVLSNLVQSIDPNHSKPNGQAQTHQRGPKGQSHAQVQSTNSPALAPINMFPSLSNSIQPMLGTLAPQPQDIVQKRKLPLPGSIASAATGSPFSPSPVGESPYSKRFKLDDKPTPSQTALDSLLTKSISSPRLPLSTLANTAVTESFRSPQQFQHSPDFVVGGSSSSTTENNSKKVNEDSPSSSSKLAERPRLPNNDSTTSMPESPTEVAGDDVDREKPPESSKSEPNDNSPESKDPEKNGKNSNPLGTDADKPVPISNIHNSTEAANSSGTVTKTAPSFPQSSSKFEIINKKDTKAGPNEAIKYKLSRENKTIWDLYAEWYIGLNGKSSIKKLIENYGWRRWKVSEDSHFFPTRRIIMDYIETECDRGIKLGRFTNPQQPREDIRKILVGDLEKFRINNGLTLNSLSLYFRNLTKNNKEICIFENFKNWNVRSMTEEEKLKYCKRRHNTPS
Test: PBM E-score (8-mer binding enrichment) (E-score (-0.5 to 0.5)); higher = stronger / more preferred TF binding; most listed sequences are background and not binding sites
Details: protein concentration: 100 nM; construct: GST-full length
Protocol: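 Universal 'all 10-mer' protein binding microarrays (Agilent AMADID 015681) probed with GST-tagged S. cerevisiae TFs (full-length or DBD) made by in vitro transcription/translation (PURExpress), about 100-200 nM. Bound TF was detected with fluorescent anti-GST. Each ungapped 8-mer (which stands for itself and its reverse complement) is scored by the PBM enrichment score (E-score), a modified Wilcoxon-Mann-Whitney statistic from -0.5 to +0.5, computed with the Universal PBM Analysis Suite. Scale: above 0.35 generally sequence-specific binding.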

| Sequence | PBM E-score |
| --- | --- |
| AGCCCTTA | -0.137 |
| GTCGTAAC | -0.0346 |
| ATAAGTTA | 0.0916 |
| GGTAATAC | -0.00341 |
| AGGGTCAA | -0.0952 |
| CCAGCAGC | 0.272 |
| GCCTCTAC | 0.129 |
| GAAGCGCA | 0.129 |
| ATGCTGCC | 0.0147 |
| CCGAGAAA | 0.15 |
| GAATTCCC | 0.116 |
| CCTTGCCA | -0.0989 |
| ATACTAAG | 0.0439 |
| AGCTCTAC | -0.198 |
| ACTAGCAG | -0.054 |
| CTGTAGTC | -0.0778 |
| CGCGTGCA | -0.0886 |
| CGAATCAA | -0.0457 |
| CAACCATA | 0.208 |
| CTCAGTCC | -0.206 |
| CGCTAAGA | -0.00114 |
| ATGCATAG | -0.105 |

| Sequence | PBM E-score |
| --- | --- |
| CAGCTATA | 0.181 |
| CCGTGTAG | -0.0596 |
| GCGTAAGC | -0.0756 |
| AAACAGGT | 0.271 |
| CAATTAAG | 0.101 |
| AGCTGTTC | -0.115 |
| CTGTGGCC | -0.0927 |
| CACCCATC | 0.0249 |
| AAAGCAAA | 0.0399 |
| GACCGTGA | -0.176 |
| CTATAAAG | 0.0437 |
| GATTTGCC | -0.0236 |
| AGCTACCA | 0.269 |
| AATCTCCC | -0.0475 |
| AAGTTCAA | 0.0288 |
| TCAACTCA | 0.0773 |
| GAGCCAAA | 0.0506 |
| AATCAGGT | 0.0435 |
| ATGCAAGG | -0.0906 |
| AGTTTGGA | 0.117 |
| AAAATATA | 0.156 |
| AAACCTAG | 0.0461 |

| Sequence | PBM E-score |
| --- | --- |
| GCAGCCCA | 0.199 |
| GCCGCACA | -0.124 |
| ATATAACC | -0.147 |
| CCCTTTGA | -0.151 |
| GGAAGAAA | -0.155 |
| AAGAAGGG | -0.0458 |
| TAGGGACA | 0.0118 |
| GCCAGGAC | -0.212 |
| CACAACCC | -0.106 |
| GAAGAGAC | 0.0695 |
| AACAGCTA | -0.13 |
| CCGCCCTA | -0.0561 |
| AATACGAA | 0.227 |
| CATTTAGC | -0.0426 |
| GTAGAAGA | 0.145 |
| AGCGTGCG | -0.0301 |
| CCATATAA | 0.126 |
| GGAAGACC | -0.0348 |
| AACTGATT | -0.061 |
| AGCCAACT | -0.011 |
| GAGCGTAA | -0.127 |
| ACGCCGAT | 0.0467 |

| Sequence | PBM E-score |
| --- | --- |
| ATTAGAAA | 0.149 |
| CACCGGGA | 0.0902 |
| AGTATACT | -0.141 |
| CACATAAG | -0.00832 |
| GCAAAGGC | -0.281 |
| CGCTGCGA | 0.0566 |
| CTTTCCCA | -0.15 |
| ACGCTCTA | -0.0794 |
| AAAATGAT | 0.183 |
| TAATGATA | 0.17 |
| GGTGCCAC | 0.225 |
| AAAGTTGG | 0.113 |
| CCGTTACG | -0.0567 |
| GACGAGTC | -0.131 |
| AGCGTAAC | -0.0791 |
| ACGTAACG | -0.151 |
| CTAAGTAA | -0.0883 |
| CCTGGCCC | -0.204 |
| CTCAATCA | 0.119 |
| AATCTGCT | -0.133 |
